The values that follow come from PubChem BioAssay AID1963576 (National Center for Advancing Translational Sciences (NCATS), 2024).

Hit rate of the full screen: of about 46,000 compounds, about 60 (0.1%) were called active. Not shown: some 3% with an inconclusive outcome. Calls come from the whole dose curve; as a rule, active = well fitted inhibition curve with a large enough effect; inconclusive = small, poorly fitted or top-dose-only effect; inactive = no such curve, though single readings can be large or run the other way. Some of the results follow.
Potency is the fitted concentration of half-maximal effect.

The nature of this assay: Primary qHTS assay for Inhibitors of ovarian cancer metastasis using an organotypic tumor microenvironment (TME) model.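 For Potency: count of GFP cancer cells still attached after washing and fixation.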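 For activity change, negative = inhibition: plate controls were DMSO wells for no effect and tomatine positive control wells for full effect.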 Note: nearly all actives have a fitted effect of over 65% in size. The conditions noted are these: SKOV3ip1-GFP adhesion/invasion on 3D omental model, fluorescence; series mostly up to 45.8 µM; activity change, negative = inhibition: at the top concentration. The method, boiled down: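 A 3D layer of primary human omental fibroblasts, mesothelial cells, fibronectin and collagen I, grown 48 hr, received SKOV3ip1-GFP cells in serum-free medium plus compounds at 0.36-46 umol/L. After 2 hr RT and 16 hr 37 C, fixed adherent GFP cells were counted; normalized to DMSO and tomatine.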
With `CCCCn1c(=NC(=O)c2cc3ccccc3o2)c(C(=O)OCC)cc2c(=O)n3ccccc3nc21`, the “activity change, negative = inhibition” value was inactive: -0.263%.

With `CCn1c(=O)c2cc(C(=O)NCCCN3CCC(C)CC3)sc2c2ccccc21`, the “activity change, negative = inhibition” value is inactive: -20.7%.

Regarding `Cc1cccc(N2CCN(S(=O)(=O)c3ccc4c(c3)CC(=O)N4C)CC2)c1C`, the “activity change, negative = inhibition” value is inactive: 3.24%.

Consider `COc1ccc(Cn2ccnc2SCC(=O)NCc2ccco2)cc1`, for which the “activity change, negative = inhibition” value was inactive: -7.35%.

For `CCN(CC)CCNC(=O)Cn1nc(C)c2c(C)n(-c3ccccc3)nc2c1=O`, the “activity change, negative = inhibition” value was inactive: 0.951%.

On to `Cc1ccc(Cl)cc1NC(=O)CSc1nc2ccccc2nc1Cc1ccccc1`, for which the call was inactive.

For `COc1cccc(-c2noc(COc3ccccc3Cl)n2)c1`, the “activity change, negative = inhibition” value is inactive: 3.65%.

With `CCN(C(=O)c1sc2nc3n(c(=O)c2c1C)CCCCC3)c1ccc(OC)cc1`, the “activity change, negative = inhibition” value is inactive: 9.8%.

With `COc1ccc(C)cc1NC(=O)NC(C)c1c(-n2cccc2)sc(C)c1C` (stereo not given), the compound was classed as inactive.

For the compound `CCOC(=O)c1c(C)[nH]c(CCC(=O)NC(C)c2ccccc2)c1C` (stereo not given), the “activity change, negative = inhibition” value is inactive: -8.44%.

Take `O=C(C1CCCN(S(=O)(=O)c2ccc(Br)s2)C1)N1CCN(c2ccccc2F)CC1` (stereo not given): the “activity change, negative = inhibition” value was inactive: -4.33%.

In the case of `Fc1ccc(Nc2ncnc3onc(-c4ccc(Cl)cc4)c23)cc1Cl`, the “activity change, negative = inhibition” value is inactive: 9.88%.

Regarding `CCOC(=O)c1cn(CC(=O)Nc2ccc(OC)cc2OC)nn1`, the “activity change, negative = inhibition” value was inactive: -6.83%.

Turning to `CC(C)Cc1ccc(S(=O)(=O)N2CCN(Cc3noc(CCC(=O)N4CCCCC4)n3)CC2)cc1`, the compound was classed as inactive.

`Cc1c(C(=O)Nc2ccc(-n3c(C)nc4ccccc4c3=O)cc2)cccc1[N+](=O)[O-]`: the result was inactive.

As to `CC1=C(c2ccc(F)cc2)S(=O)(=O)N=C1N1CCC(C(=O)NCCc2ccccc2C)CC1`, the “activity change, negative = inhibition” value is inactive: -4.77%.

As to `COc1ccc(C2C(C(=O)Nc3ccccc3)=C(C)Nc3nc(SCC(=O)c4ccc(C)cc4)nn32)cc1` (stereo not given), the “activity change, negative = inhibition” value is inactive: 0.207%.

Turning to `O=C(CCN1CCN(C(=O)OCc2cc(Cl)cc(Cl)c2)CC1)c1ccc2[nH]c(=O)oc2c1`, the “activity change, negative = inhibition” value was inactive: -3.67%.

`COC(=O)C(NC(=O)CCc1c(C)nc2c(-c3ccccc3)c(C)nn2c1C)C(C)C` (stereo not given): the outcome was inactive.

With `Cc1ccc(Cl)cc1NC(=O)Cn1c(=O)n(CCC(=O)NCc2ccc3c(c2)OCO3)c(=O)c2sccc21`, the result was inactive.

For `Cc1cc2nn(-c3ccc(F)cc3)nc2cc1NC(=O)c1cccc2c(Cl)cccc12`, the “activity change, negative = inhibition” value is inactive: 1.76%.

Regarding `Cc1cc(C)nc(-n2nc(C)c3c2NC(=O)CC3c2cccc(O)c2)n1` (stereo not given), the “activity change, negative = inhibition” value was inactive: 3.03%.

Turning to `CCOc1cc2c(cc1OCC)C(CC(=O)O)N(C(=O)Nc1ccccc1C(F)(F)F)CC2` (stereo not given), the compound was called inactive.

On to `CCn1c(C)c(C)c2cc(C(=O)NCc3ccc(F)cc3)ccc21`, for which the “activity change, negative = inhibition” value is inactive: -9.05%.

Regarding `COc1ccc(-n2cc(-c3ccccc3)c3c(Nc4ccc(OC)c(OC)c4)ncnc32)cc1`, the “activity change, negative = inhibition” value is inactive: -5.67%.

For `COc1cc(OC)c(NC(=O)Nc2cccc(OCc3cc(=O)n4ccccc4n3)c2)cc1Cl`, the “activity change, negative = inhibition” value is inactive: 11.6%.

On to `CCOC(=O)c1ccc2c(c1)N(Cc1ccc(F)cc1Cl)C(=O)c1ccccc1S2(=O)=O`, for which the “activity change, negative = inhibition” value was inactive: 3.82%.

With `COc1ccc(-c2oc3c(CC=C(C)C)c(O)cc(O)c3c(=O)c2O)cc1`, the “activity change, negative = inhibition” value is inactive: 5.53%.

`Cc1ccc(CNC(=O)c2nc(SCc3ccccc3C)ncc2Cl)cc1`: the result was inactive.

On to `CCC(=O)N1CCc2cc(Br)cc(S(=O)(=O)N3CCN(c4ccccc4OC)CC3)c21`, for which the outcome was inactive.

On to `CCOC(=O)CC(=O)CSc1nc2ccsc2c(=O)n1Cc1ccccc1`, for which the “activity change, negative = inhibition” value is inactive: -1.38%.

For `Cc1noc(-c2ccc(NC(C)c3ccccc3)c([N+](=O)[O-])c2)n1` (stereo not given), the outcome was inactive.

Regarding `COc1ccccc1NC(=O)c1ccc(CN2C(=O)C(C)=C(c3ccc(C)c(C)c3)S2(=O)=O)cc1`, the “activity change, negative = inhibition” value is inactive: 0.319%.

On to `O=C1C(Cl)=C(NCCN2CCOCC2)C(=O)c2ncccc21`, for which the Potency was active: 5.9 µM.

`CC1(c2ccccc2)CC(C)(C)N(C(=O)c2cccc(Cl)c2)c2ccccc21` (stereo not given): the “activity change, negative = inhibition” value was inactive: 6.96%.

As for `Cc1ccc(CCNS(=O)(=O)c2c(C)nc3sc(C)c(C)n3c2=O)cc1`, the “activity change, negative = inhibition” value is inactive: -9.54%.

As to `Cc1cc(C)cc(-n2c(SCC(=O)N3CCOCC3)nc3c([nH]c4ccccc43)c2=O)c1`, the “activity change, negative = inhibition” value is inactive: 6.33%.

With `Cc1ccc(CNC(=O)c2ccc(CSCc3cccc(C)c3)o2)cc1`, the result was inactive.

Regarding `CC1CCN(S(=O)(=O)c2ccc3c(c2)N(CC(=O)NCCc2ccccc2)C(=O)CO3)CC1`, the call was inactive.

For `COc1cccc(NC(=O)c2ccc3c(c2)CCN3S(C)(=O)=O)c1`, the result was inactive.

With `O=C1C(=O)N(C2CCN(C(=O)c3ccccc3Cl)CC2)CCN1Cc1ccc(F)cc1`, the compound was classed as inactive.

On to `COc1cc(=C2C=c3ccccc3=N2)[nH]c1=Cc1[nH]c(C)cc1C`, for which the “activity change, negative = inhibition” value is inactive: -18.3%.

Consider `Cc1ccc(NS(=O)(=O)c2ccc3[nH]c4c(c3c2)CCCC4)cc1N(C)C`, for which the “activity change, negative = inhibition” value is inactive: -20.2%.

In the case of `Cc1nc2ccn(Cc3cccs3)c(=O)c2cc1C(=O)N1CCN(c2ccccc2F)CC1`, the “activity change, negative = inhibition” value was inactive: -3.96%.

As to `Cc1nc2nc(NCc3ccc(Cl)cc3)[nH]n2c(=O)c1Cc1ccccc1`, the “activity change, negative = inhibition” value was inactive: 21.6%.

With `COc1ccccc1CNC(=O)CCS(=O)(=O)c1ccc2c(c1)CCN2C(C)=O`, the “activity change, negative = inhibition” value was inactive: -6.57%.

In the case of `Cc1ccc(Cl)cc1N1CCN(C(=O)Cn2cnc3sc(C)c(S(=O)(=O)N4CCC(C)CC4)c3c2=O)CC1`, the result was inactive.

Take `COC(=O)c1scc(-c2ccc(C)cc2)c1S(=O)(=O)N1CCN(c2ccc(C(C)=O)cc2)CC1`: the call was inactive.

Turning to `COc1ccc(C2=CC(c3ccccc3Cl)n3nc(-c4ccc(Cl)cc4)nc3N2)cc1` (stereo not given), the “activity change, negative = inhibition” value was inactive: 5.11%.

With `CCOC(=O)c1c(C)oc2nc(C)nc(NCc3ccc(F)cc3)c12`, the “activity change, negative = inhibition” value was inactive: -6.49%.

For `Cc1ccc(-n2c(=O)c3c(C)c(C)sc3n(CC(=O)NCc3ccccc3)c2=O)cc1C`, the result was inactive.

Turning to `CCN(CC)CCCCNc1ncc2c(n1)N(C)C(=O)N(c1c(Cl)c(OC)cc(OC)c1Cl)C2`, the “activity change, negative = inhibition” value was inactive: -3.35%.

On to `CCOc1ccc(CCNC(=O)CCCn2c(=O)c3cccn3c3ccccc32)cc1`, for which the result was inactive.

As for `Cc1ccc(CNC(=O)CCCn2c(=O)c3ccccc3n(CC(=O)Nc3ccc(C)c(C)c3)c2=O)cc1`, the compound was classed as inactive.

As for `COc1ccc(C(=O)Nc2nnc(SCc3cc(=O)c4cc(C)cc(C)c4[nH]3)s2)cc1`, the “activity change, negative = inhibition” value was inactive: -9.96%.

In the case of `CCc1ccccc1NC(=O)CCNS(=O)(=O)c1ccc2c(c1)CCN2C(=O)C1CC1`, the outcome was inactive.

On to `Cn1c(=O)c2c(nc(SCC(=O)Nc3ccccc3F)n2Cc2ccc(Cl)cc2)n(C)c1=O`, for which the outcome was inactive.

Take `Cc1ccc(Cl)cc1NC(=O)C(C)n1nc(-c2ccccc2)ccc1=O` (stereo not given): the call was inactive.

Regarding `Cc1ccc(-n2ncc3c(NCCC4=CCCCC4)ncnc32)cc1`, the call was inactive.

As for `Cc1c(C(=O)N2CCC(c3nc4ccccc4s3)CC2)oc2ccc(Cl)cc12`, the call was inactive.
